The text below walks through data of the supplement of paper PMC11417369.

± gives the standard deviation of the averaged measurements. Some of the results follow.

This assay has as its system PfAP2-LT AP2 domain (GST-tagged). In words: gcPBM binding intensity (ln(normalized median fluorescence intensity)); higher = stronger DNA binding. In outline: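 GST-tagged P. falciparum DNA-binding domains produced in E. coli were incubated for 1 h on an Agilent 4 × 180k array of primer-extended double-stranded 36-bp intergenic genomic probes with negative controls. Binding intensity is the highest Masliner-normalised natural-log median intensity across replicate spots of either probe orientation, with bound protein detected by Alexa488 anti-GST antibody at 488 nm.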
For “TTTTTTCTTTTCAAGGTGCTTTATAAGAAAAAGGGA [GTGCAC_site9858]”, the “gcPBM binding intensity (ln)” value worked out at 7.93 ± 0.33. As to “TATTTTATCATTTGCACACGCACACCCACATAAAAA [CACACA_site354]”, the “gcPBM binding intensity (ln)” value was 9.4 ± 0.16. In the case of “TATATTAAAACAAGCACACAATCGCATAATATCCTT [CACACA_site3210]” it was 9.02 ± 0.36; in that of “AGTATTATATTTTCTTGTACACATGTAAAATACCTC [XGTACX_site1359]”, 8.91 ± 0.45; in that of “TATTATTCAAATAAAAGAAAAATATATATATTATAT [GTGCAC_negctrl_site273]”, 8.38 ± 0.39. Regarding “ATATGTTACTTTACATAAAGAAGAAGAAGAAGAAAA [CACACA_negctrl_site985]”, the “gcPBM binding intensity (ln)” value worked out at 8.68 ± 0.4. With “TTTCAAAAAGGAAGAAAAAAAAAAAAAAAAAATATA [XGTACX_negctrl_site514]”, the “gcPBM binding intensity (ln)” value stood at 8.23 ± 0.53. In the case of “TCCCCCTTTTTTTGATTTTTATCTTAATTCTAAAAG [GTGCAC_negctrl_site541]” it was 8.65 ± 0.31. In the case of “ATATATATATATATATGTACATATTTTTTATTTTAT [XGTACX_site5761]” it was 9.655 ± 0.078; in that of “TTTAACGTTGAATATACACACATATATATATATATA [CACACA_site3698]”, 9.55 ± 0.042. On to ATATATTTTTGTAGTGTGCACGTTTATATGGTGAAA, for which the “gcPBM binding intensity (ln)” value came to 8.93 ± 0.34. As for “TATAAACATATCATATGTACATATATTTTTATAAAA [XGTACX_site8882]”, the “gcPBM binding intensity (ln)” value was found to be 8.54 ± 0.47. “AAGAAAAAATAAAAAATAAAAATAAAAAATAAAAAA [TGCATGCA_negctrl_site274]”: the “gcPBM binding intensity (ln)” value amounted to 8.56 ± 0.59. “TAAGGATGAATCCTTTGTACATATATATATATATAT [XGTACX_site1242]”: the “gcPBM binding intensity (ln)” value turned out to be 9.27 ± 0.042. “TTTTTTTAAATATACACACACATTTATACATATATA [CACACA_site3400]”: the “gcPBM binding intensity (ln)” value came to 9.1 ± 0.39. As to “TGAAAAGAAAACACATGTACAAATATATAAATATAA [XGTACX_site6098]”, the “gcPBM binding intensity (ln)” value is 9.01 ± 0.48.

For the sequence “GTTATACATTTTGATTGTACATAAACCATTTGAGCA [XGTACX_site7283]”, the “gcPBM binding intensity (ln)” value came out at 8.72 ± 0.41. With “TTTATATATATTCTCACACACTTTTTATTTTAACAA [CACACA_site4534]”, the “gcPBM binding intensity (ln)” value was 8.84 ± 0.53. Turning to “ATAAATTTCCTCGTTTTTTTTTTTTTTTTTTTTTTT [CACACA_negctrl_site1173]”, the “gcPBM binding intensity (ln)” value worked out at 8.76 ± 0.16. In the case of “AAAAATATTTATAACACACACATAATATTTATATAT [CACACA_site7238]” it was 9.21 ± 0.38; in that of “ATATATTTACATATTACACACAATATTGTACACATA [CACACA_site6564]”, 9.29 ± 0.34; in that of TTTCTTTTTAAATAGGTGCATATTTTTATAAATATA, 8.4 ± 0.43. For the sequence “TTAAATATAATATTATGTACTAAATATTTTTTTATT [XGTACX_site6121]”, the “gcPBM binding intensity (ln)” value is 8.43 ± 0.63. In the case of “CTATTTCAGAAACACACACACACAAACAAACATATA [CACACA_site978]”, the “gcPBM binding intensity (ln)” value came to 9.925 ± 0.092. Consider “TATTTGAAAGCCAATTGTACTTTAGTTTTTGAAACA [XGTACX_site5542]”, for which the “gcPBM binding intensity (ln)” value stood at 8.29 ± 0.44.

For the sequence “CAAGAAATTTACAAACGTACATATGTTCATACAAGG [XGTACX_site2372]”, the “gcPBM binding intensity (ln)” value was 8.89 ± 0.49. With “TTAGAGAAACAAAATTGTACATTATAAATTTGCCTT [XGTACX_site440]”, the “gcPBM binding intensity (ln)” value worked out at 8.54 ± 0.43. In the case of “TATATATATATATATATATATATGTATGTGCATTTA [TGCATGCA_negctrl_site53]”, the “gcPBM binding intensity (ln)” value amounted to 9.72 ± 0.11.

Turning to “ATTTAGAAAAATAAAACACACATATATATGTAAATA [CACACA_site4113]”, the “gcPBM binding intensity (ln)” value was determined as 8.96 ± 0.35. In the case of “ATATAAAAATGTAAGGGTACATAATAAATAATCAAA [XGTACX_site5217]” it was 9.02 ± 0.49; in that of “ATCTGTCGACAGGACAGTACACAGTAGCCAGGAAAT [XGTACX_site1994]”, 9.16 ± 0.42; in that of “TATATCTTACTTTTTGCACACACTAATATTATTGTT [CACACA_site1640]”, 9.52 ± 0.3. As for “ACAAAATTTACAAAATGTACAAAATTTACAAAATGT [XGTACX_site6464]”, the “gcPBM binding intensity (ln)” value stood at 8.81 ± 0.35. In the case of “GAAGGAAAAACAGAATGTACATAAATAAACGTATAT [XGTACX_site753]” it was 9.32 ± 0.66. For “AATACGGCAAACATTAAAAAATATAATAACAATAAA [CACACA_negctrl_site868]”, the “gcPBM binding intensity (ln)” value amounted to 8.8 ± 0.54. “GGAAAAAATATATGCACACCCCCCAAAAAAAAAAAA [CACACA_site2222]”: the “gcPBM binding intensity (ln)” value was 10.5 ± 0.13. Regarding “AAAAAATATTAATATAGTACTTTATATTTATAAGTA [XGTACX_site6895]”, the “gcPBM binding intensity (ln)” value came out at 8.35 ± 0.6. Take TTTTTGTTATTTTTAGTGCACATTTAAGGGTGTATT: the “gcPBM binding intensity (ln)” value turned out to be 8.86 ± 0.43. Take “AATATACAAAATATCACACATATAAAATAATATATA [CACACA_site6067]”: the “gcPBM binding intensity (ln)” value is 8.88 ± 0.45. As to “GATATATAAACATATACACACAAAAACATATTTATA [CACACA_site6734]”, the “gcPBM binding intensity (ln)” value amounted to 9.03 ± 0.42. In the case of “TGATAATTTCATTTTGCATGTGACAATACAAGATGT [TGCATGCA_site203]”, the “gcPBM binding intensity (ln)” value turned out to be 8.67 ± 0.42. Take “AAATAATATGTAATCAAATTCACCAAACGAAAAAAA [TGCATGCA_negctrl_site33]”: the “gcPBM binding intensity (ln)” value amounted to 8.84 ± 0.5. Take “AATGGTTCAACGTAGTGTACGTAATAAATAATAAAT [XGTACX_site8668]”: the “gcPBM binding intensity (ln)” value was determined as 8.86 ± 0.45. For “ATTATATGTAACACGTGTACCTATTTATGTATGCTT [XGTACX_site5748]”, the “gcPBM binding intensity (ln)” value turned out to be 9.11 ± 0.37.

As for “TATAATATTTACGACAGTACATATATATATATGTAT [XGTACX_site8332]”, the “gcPBM binding intensity (ln)” value stood at 8.86 ± 0.36. Take “AAATAATTTGTTGACACACACACACCCATACATATA [CACACA_site2285]”: the “gcPBM binding intensity (ln)” value was determined as 9.86 ± 0.21. In the case of “TACATATAAAAGTACACACACACACCCATATATATA [CACACA_site941]”, the “gcPBM binding intensity (ln)” value worked out at 10.1 ± 0.3. On to “ATGGACTTTTATAGTTGTACATACTATGAGAACTTT [XGTACX_site2800]”, for which the “gcPBM binding intensity (ln)” value was determined as 8.75 ± 0.31. As to “TAAAATAAATTGTGCACACATATTTATAAATATGAA [CACACA_site2331]”, the “gcPBM binding intensity (ln)” value is 9.03 ± 0.52.

On to “TATTGCCCGAAACACACACACATATATATATATATA [CACACA_site2491]”, for which the “gcPBM binding intensity (ln)” value amounted to 10.01 ± 0.05.

As to “GTTTATCACAGCCACGCACACATAATATATGTATAT [CACACA_site3669]”, the “gcPBM binding intensity (ln)” value amounted to 9.29 ± 0.35.

With “ACAAAAAAATAAGGTGCACACAAAAAAAAAAAAAAA [CACACA_site8171]”, the “gcPBM binding intensity (ln)” value worked out at 9.13 ± 0.54. As to “TATATGGCATATTTCACACACACATAATGAATATTA [CACACA_site9181]”, the “gcPBM binding intensity (ln)” value was 9.39 ± 0.35. Take “TTTTTTTTTTTTTGATGTACTTATTTAATAAGATAT [XGTACX_site376]”: the “gcPBM binding intensity (ln)” value is 8.38 ± 0.47. For the sequence “GAGTTCAGTTTTTGTTGTACTTATTCTTAATATGTC [XGTACX_site6083]”, the “gcPBM binding intensity (ln)” value turned out to be 8.97 ± 0.45.

Take “ATATAGCATATAATTTGTACACAGGCCATACCTGAA [XGTACX_site533]”: the “gcPBM binding intensity (ln)” value was determined as 8.79 ± 0.35. As to “AGATGATATACGTAAACACACAAATAAAAAAAATTT [CACACA_site3327]”, the “gcPBM binding intensity (ln)” value was determined as 9.04 ± 0.47.
